The source of these data is US20210213102A1 (Innovent, published 2021).

The term Kd denotes the constant that tells how readily two partners part at equilibrium. A higher Kd goes with lower affinity.

Experiment [1] deals with T1, IL-2Rα (CD25) on primary human CD8+ CD25+ T cells (human, UniProt P01589 22-272).
T1 sequence (looked up): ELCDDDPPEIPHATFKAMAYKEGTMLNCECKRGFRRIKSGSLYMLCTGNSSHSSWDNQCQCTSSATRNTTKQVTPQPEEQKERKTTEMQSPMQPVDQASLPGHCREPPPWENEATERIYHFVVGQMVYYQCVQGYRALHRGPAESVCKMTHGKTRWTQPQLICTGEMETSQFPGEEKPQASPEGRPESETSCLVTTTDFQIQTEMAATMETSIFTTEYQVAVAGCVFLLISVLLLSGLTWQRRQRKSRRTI
The experiment can be described thus: cell-based or functional assay.

Experiment [2] deals with T2, human IL-2Rα (Uniprot P01589, aa22-217) with C-terminal avi tag and six-histidine tag (human, UniProt P01589 22-217).
T2 construct: range 22-217; Expressed in 293F cells; monomer peak collected; also called CD25
T2 sequence: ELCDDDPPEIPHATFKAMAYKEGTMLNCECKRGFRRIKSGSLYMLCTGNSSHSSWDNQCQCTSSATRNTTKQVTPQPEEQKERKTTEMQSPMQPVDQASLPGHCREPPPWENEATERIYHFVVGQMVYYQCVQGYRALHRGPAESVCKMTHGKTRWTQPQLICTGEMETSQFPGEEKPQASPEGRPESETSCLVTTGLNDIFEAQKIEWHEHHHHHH
The experiment can be described thus: BLI, Fc fusion on AHC sensor, soluble receptor. On the procedure: (§1) The sensors were arranged according to the positions of the samples. The instrument settings were as follows: the operation procedures were Baseline, Loading −1 nm, Baseline, Association, and Dissociation; the run time of each procedure was dependent on the rates of association and dissociation; the rotation speed was 400 rpm, and the temperature was 30° C. The KD values were analyzed by ForteBio analysis software.
Background: BLI is a label-free optical method that tracks binding on a fibre tip over time.

In experiment [3] the target is T3, human IL-2Rβ (Uniprot P14784, aa27-240) with C-terminal avi tag and six-histidine tag (human, UniProt P14784 27-240).
T3 construct: range 27-240; Expressed in 293F cells; monomer peak collected; also called CD122
T3 sequence: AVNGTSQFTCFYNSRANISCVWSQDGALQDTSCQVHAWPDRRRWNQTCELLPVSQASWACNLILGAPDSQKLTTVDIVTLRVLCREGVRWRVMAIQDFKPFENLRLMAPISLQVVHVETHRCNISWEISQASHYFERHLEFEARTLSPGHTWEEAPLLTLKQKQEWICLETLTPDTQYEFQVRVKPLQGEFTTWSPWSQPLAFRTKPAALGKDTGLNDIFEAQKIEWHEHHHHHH
The experiment in a line: BLI, Fc fusion on AHC sensor, soluble receptor. The method, then: as §1

In experiment [4] the target is T3, human IL-2Rβ (Uniprot P14784, aa27-240) …. The experiment can be described thus: BLI; legend: binding was very weak and the fit was poor.

B1: Y045 (IL-2^WT-2*(G4S)-FcLALA) (Fc fusion)
chain: not shown
In the case of B1, in experiment [1], the “CD25^- EC50/CD25^+ EC50 multiple” value was found to be 467 fold. In addition, in experiment [2], binding was put at a Kd of 50.3 nM.

B2: Y038 (IL-2^glycan5-2*(G4S)-FcLALA) (Fc fusion)
chain: APTSSSTKKTQLQLEHLLLDLQMILNGINNYKNPKLTRMLTFNFTMPKKATELKHLQCLEEELKPLEEVLNLAQSKNFHLRPRDLISNINVIVLELKGSETTFMCEYADETATIVEFLNRWITFSQSIISTLTGGGGSGGGGS[human IgG1 Fc with changes skipped]
modifications: introduced N-glycosylation motif K43N-F44-Y45T
In the case of B2, the binding result in experiment [2] and in experiment [3] was “no binding” in each case.

B3: Y040 (IL-2^3X-2*(G4S)-FcLALA) (Fc fusion)
chain: APTSSSTKKTQLQLEHLLLDLQMILNGINNYKNPKLTDMLTFEFYMPKKATELKHLQCLERELKPLEEVLNLAQSKNFHLRPRDLISNINVIVLELKGSETTFMCEYADETATIVEFLNRWITFSQSIISTLTGGGGSGGGGS[human IgG1 Fc with changes skipped]
Turning to B3, in experiment [1], the “CD25^- EC50/CD25^+ EC50 multiple” value amounted to 8.4 fold. The binding result in experiment [2] is reported as “no binding”.

B4: Y001 (IL-2^WT-GSGS-FcLALA) (Fc fusion)
chain: not shown
notes: Expressed in Expi293/HEK293 cells, protein A purified; also called IL-2-GSGS-FcLALA; IL-2^WT-FC
In experiment [2], B4 displayed a Kd of 11.2 nM. The binding result in experiment [3] is “no binding”.

B5: Y012 (IL-2^glycan6-GSGS-FcLALA) (Fc fusion)
chain: APTSSSTKKTQLQLEHLLLDLQMILNGINNYKNPKLTRMLTFKFYMPKKATELKHLQCLEENLTPLEEVLNLAQSKNFHLRPRDLISNINVIVLELKGSETTFMCEYADETATIVEFLNRWITFSQSIISTLTGSGS[human IgG1 Fc with changes skipped]
modifications: introduced N-glycosylation motif E62N-L63-K64T
notes: also called L012 as Fc fusion
Regarding B5, the affinity in experiment [2], expressed as Kd, was 92.2 nM.

B6: Y013 (IL-2^glycan7-GSGS-FcLALA) (Fc fusion)
chain: APTSSSTKKTQLQLEHLLLDLQMILNGINNYKNPKLTRMLTFKFYMPKKATELKHLQCLEEELKPLEEVLNNATSKNFHLRPRDLISNINVIVLELKGSETTFMCEYADETATIVEFLNRWITFSQSIISTLTGSGS[human IgG1 Fc with changes skipped]
modifications: introduced N-glycosylation motif L72N-A73-Q74T
notes: also called L013 as Fc fusion
B6: the binding result in experiment [2] is given as “no binding”.

B7: Y008 (IL-2^glycan2-GSGS-FcLALA) (Fc fusion)
chain: APTSSSTKKTQLQLEHLLLDLQMILNGINNYKNPKLTNMSTFKFYMPKKATELKHLQCLEEELKPLEEVLNLAQSKNFHLRPRDLISNINVIVLELKGSETTFMCEYADETATIVEFLNRWITFSQSIISTLTGSGS[human IgG1 Fc with changes skipped]
modifications: introduced N-glycosylation motif R38N-M39-L40S
notes: also called L008 as Fc fusion
For B7, binding in experiment [2] was put at a Kd of 42.3 nM.

B8: Y011 (IL-2^glycan5-GSGS-FcLALA) (Fc fusion)
chain: APTSSSTKKTQLQLEHLLLDLQMILNGINNYKNPKLTRMLTFNFTMPKKATELKHLQCLEEELKPLEEVLNLAQSKNFHLRPRDLISNINVIVLELKGSETTFMCEYADETATIVEFLNRWITFSQSIISTLTGSGS[human IgG1 Fc with changes skipped]
modifications: introduced N-glycosylation motif K43N-F44-Y45T
notes: also called YO11; L011 as Fc fusion
Consider B8, for which the binding result in experiment [2] was “no binding”.

B9: Y010 (IL-2^glycan4-GSGS-FcLALA) (Fc fusion)
chain: APTSSSTKKTQLQLEHLLLDLQMILNGINNYKNPKLTRMLTFKFNMSKKATELKHLQCLEEELKPLEEVLNLAQSKNFHLRPRDLISNINVIVLELKGSETTFMCEYADETATIVEFLNRWITFSQSIISTLTGSGS[human IgG1 Fc with changes skipped]
modifications: introduced N-glycosylation motif Y45N-M46-P47S
notes: also called L010 as Fc fusion
For B9, the binding result in experiment [2] is “no binding”.

B10: Y009 (IL-2^glycan3-GSGS-FcLALA) (Fc fusion)
chain: APTSSSTKKTQLQLEHLLLDLQMILNGINNYKNPKLTRMLTFKFYMPKKATELKHLQCLEEELKPLENVSNLAQSKNFHLRPRDLISNINVIVLELKGSETTFMCEYADETATIVEFLNRWITFSQSIISTLTGSGS[human IgG1 Fc with changes skipped]
modifications: introduced N-glycosylation motif E68N-V69-L70S
notes: also called L009 as Fc fusion
Regarding B10, the binding result in experiment [2] was “no binding”.

B11: Y014 (IL-2^glycan8-GSGS-FcLALA) (Fc fusion)
chain: APTSSSTKKTQLQLEHLLLDLQMILNGINNYKNPKLTRMLTFKFYMPKKATELKHLQCLEEELKPLEEVLNLANSTNFHLRPRDLISNINVIVLELKGSETTFMCEYADETATIVEFLNRWITFSQSIISTLTGSGS[human IgG1 Fc with changes skipped]
modifications: introduced N-glycosylation motif Q74N-S75-K76T
notes: also called L014 as Fc fusion
B11 showed a Kd in experiment [2] of 10.3 nM.

B12: Y015 (IL-2^glycan9-GSGS-FcLALA) (Fc fusion)
chain: APTSSSTKKTQLQLEHLLLDLQMILNGINNYKNPKLTRMLNFSFYMPKKATELKHLQCLEEELKPLEEVLNLAQSKNFHLRPRDLISNINVIVLELKGSETTFMCEYADETATIVEFLNRWITFSQSIISTLTGSGS[human IgG1 Fc with changes skipped]
modifications: introduced N-glycosylation motif T41N-F42-K43S
notes: also called L015 as Fc fusion
Turning to B12, the binding result in experiment [2] is reported as “no binding”.

B13: Y002 (IL-2^3X-GSGS-FcLALA) (Fc fusion)
chain: APTSSSTKKTQLQLEHLLLDLQMILNGINNYKNPKLTDMLTFEFYMPKKATELKHLQCLERELKPLEEVLNLAQSKNFHLRPRDLISNINVIVLELKGSETTFMCEYADETATIVEFLNRWITFSQSIISTLTGSGS[human IgG1 Fc with changes skipped]
notes: Literature mutant IL-2^3X made and tested here as an Fc fusion; also called IL-2^3X-FC
In the case of B13, the binding result in experiment [2] is “no binding”.

B14: Y082 (IL-2^glycan5.truncate2-2*(G4S)-FcLALA) (Fc fusion)
chain: APTSSSTKKTQLQLEHLLLDLQMILNGINNYKNPKLTRMLTFNFTMPKKATELKHLQCLEEELKPLEEVLNLAGSKNFHDLISNINVIVLELKGSETTFMCEYADETATIVEFLNRWITFSQSIISTLTGGGGSGGGGS[human IgG1 Fc with changes skipped]
modifications: introduced N-glycosylation motif K43N-F44-Y45T
Consider B14, for which the binding result is reported as “no binding” in experiment [2] and “binds” in experiment [4].

B15: Y081 (IL-2^glycan5.truncate1-2*(G4S)-FcLALA) (Fc fusion)
chain: APTSSSTKKTQLQLEHLLLDLQMILNGINNYKNPKLTRMLTFNFTMPKKATELKHLQCLEEELKPLEEVLNLAQSKNFHDLISNINVIVLELKGSETTFMCEYADETATIVEFLNRWITFSQSIISTLTGGGGSGGGGS[human IgG1 Fc with changes skipped]
modifications: introduced N-glycosylation motif K43N-F44-Y45T
Regarding B15, the “CD25^- EC50/CD25^+ EC50 multiple” value in experiment [1] was 3.3 fold. In addition, in experiment [2], the binding result is listed as “no binding”. Binding in experiment [3] was characterised by a dissociation constant (Kd) of 260 nM.

B16: Y056 (IL-2^glycan5.15BCL-2*(G4S)-FcLALA) (Fc fusion)
chain: APTSSSTKKTQLQLEHLLLDLQMILNGINNYKNPKLTRMLTFNFTMPKKATELKHLQCLEEELKPLEEVLNLSGDASIHDLISNINVIVLELKGSETTFMCEYADETATIVEFLNRWITFSQSIISTLTGGGGSGGGGS[human IgG1 Fc with changes skipped]
modifications: introduced N-glycosylation motif K43N-F44-Y45T
Regarding B16, in experiment [1], the “CD25^- EC50/CD25^+ EC50 multiple” value was found to be 46.9 fold. For the same molecule, the binding result in experiment [2] is reported as “no binding”. Besides, in experiment [3], the Kd stood at 120 nM.

B17: Y059 (IL-2^truncate3-GSGS-FcLALA) (Fc fusion)
chain: APTSSSTKKTQLQLEHLLLDLQMILNGINNYKNPKLTRMLTFKFYMPKKATELKHLQCLEEELKPLEEVLNLAQSANFHDLISNINVIVLELKGSETTFMCEYADETATIVEFLNRWITFSQSIISTLTGSGS[human IgG1 Fc with changes skipped]
notes: also called L059 as Fc fusion
Turning to B17, the Kd in experiment [3] was 146 nM. In other words, the sub-micromolar range.

B18: Y058 (IL-2^truncate2-GSGS-FcLALA) (Fc fusion)
chain: APTSSSTKKTQLQLEHLLLDLQMILNGINNYKNPKLTRMLTFKFYMPKKATELKHLQCLEEELKPLEEVLNLAGSKNFHDLISNINVIVLELKGSETTFMCEYADETATIVEFLNRWITFSQSIISTLTGSGS[human IgG1 Fc with changes skipped]
notes: also called L058 as Fc fusion
B18 came in with an equilibrium dissociation constant (Kd) in experiment [3] of 344 nM.

B19: Y057 (IL-2^truncate1-GSGS-FcLALA) (Fc fusion)
chain: APTSSSTKKTQLQLEHLLLDLQMILNGINNYKNPKLTRMLTFKFYMPKKATELKHLQCLEEELKPLEEVLNLAQSKNFHDLISNINVIVLELKGSETTFMCEYADETATIVEFLNRWITFSQSIISTLTGSGS[human IgG1 Fc with changes skipped]
notes: also called L057 as Fc fusion
Consider B19, for which the Kd in experiment [3] is 234 nM.

B20: Y060 (IL-2^truncate4-GSGS-FcLALA) (Fc fusion)
chain: APTSSSTKKTQLQLEHLLLDLQMILNGINNYKNPKLTRMLTFKFYMPKKATELKHLQCLEEELKPLEEVLNLAQSANIHDLISNINVIVLELKGSETTFMCEYADETATIVEFLNRWITFSQSIISTLTGSGS[human IgG1 Fc with changes skipped]
notes: also called L060 as Fc fusion
B20 gave a Kd in experiment [3] of 763 nM.

B21: Y017 (IL-2^hyb15BCL-GSGS-FcLALA) (Fc fusion)
chain: APTSSSTKKTQLQLEHLLLDLQMILNGINNYKNPKLTRMLTFKFYMPKKATELKHLQCLEEELKPLEEVLNLSGDASIHDLISNINVIVLELKGSETTFMCEYADETATIVEFLNRWITFSQSIISTLTGSGS[human IgG1 Fc with changes skipped]
notes: also called L017 as Fc fusion; B′C′ loop chimera
B21 had a Kd in experiment [3] of 88.7 nM. Compared with the last molecule, the Kd is about 8.6-fold lower.
